10 compounds from PubChem BioAssay (Tox21) can be followed below.

Inconclusive results are not listed. Unless noted, the call rests on the fitted dose curve; in most records, active means well fitted curve in the direction sought with a large enough effect in the repeat runs; inconclusive means weak or mixed curves; inactive means no such curve, though single readings can be large; an effect the other way counts as inactive or inconclusive. Where a structure was tested more than once in an assay, its records may differ in their call. A number of entries come with more than one value. The list is limited to them. The source may hold further records. The records of an entry are repeated measurements across runs, samples, wells, individuals or studies. Records carry a tag for their origin. Letters hold for one entry only.

A short description of test [1]: qHTS assay for small molecules that induce genotoxicity in human embryonic kidney cells expressing luciferase-tagged ATAD5 - cell viability (AID 651634; calls by dose curve; further: nearly all actives have a fitted effect of over 25% in size). To be noted: HEK293T ATAD5-luc cells viability, CellTiter-Fluor, 15.5 h; series mostly up to 83.3 µM. Summed up: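 Seeding of 2,000 HEK293T ATAD5-luciferase cells per well preceded pin-tool compound transfer. Plates sat 15.5 hr at 37C under 5% CO2, then fluorescence was read after 30 min with CellTiter-Fluor.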
A general note: In qHTS, concentration-response curves come from the screen itself.

The nature of test [2]: qHTS assay to identify small molecule antagonists of the glucocorticoid receptor (GR) signaling pathway - cell viability counter screen (AID 720693). Further: nearly all actives have a fitted effect of over 55% in size. The note with it: GR-bla HeLa viability, CellTiter-Glo luminescence, 18 h, with 5 nM dexamethasone present; series mostly up to 58.5 µM. From the text:
(§1) National Center for Advancing Translational Sciences [NCATS]
(§2) NIH Chemical Genomics Center [NCGC]
(§3) U.S. Environmental Protection Agency [EPA]
(§4) National Institutes of Environmental Health Sciences [NIEHS]
(§5) National Toxicology Program [NTP]
(§6) U.S. Food and Drug Administration [FDA]
The Glucocorticoid receptor (GR) is one of the members of the nuclear receptor family of ligand-dependent transcription factors. GR plays a critical role in carbohydrate, protein and lipid metabolisms and programmed cell death. CellSensor GR-bla HeLa cell line (Invitrogen) contains a beta-lactamase reporter gene under the control of the glucocorticoid response element stably integrated into HeLa cells, a cervical cancer cell line that expresses glucocorticoid receptor. The activation of the reporter gene under culture conditions can be detected by fluorescence intensity. […]
The GR-bla HeLa cells were dispensed at 1500 cells/5 ul/well in 1536-well black wall/clear bottom plates using a Multidrop Combi (ThermoFisher Scientific, Waltham, MA) dispenser. […] After 1 uL of LiveBLAzerTM B/G FRET substrate was added using a Flying Reagent Dispenser (Aurora Discovery, San Diego, CA), the plates were incubated at room temperature (RT) for 2 hours, and fluorescence intensity was measured by an Envision plate reader (PerkinElmer, Shelton, CT). […] The luminescence was measured using a ViewLux (Perkin Elmer) plate reader.

Test [3] is described as follows: A CellTox Green Cytotoxicity Assay to monitor cytotoxicity in HEK293 cells - 24 hour (AID 1224875). Further: nearly all actives have a fitted effect of over 45% in size. The note with it: CellTox Green fluorescence; series mostly up to 76.8 µM. An outline of the steps: (§7)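 Seeding of HEK293 cells together with cytotoxicity dye preceded a 5 h incubation at 37 C/5% CO2. Test compounds in DMSO were then added and fluorescence monitored across 40 h.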

A short description of test [4]: A CellTox Green Cytotoxicity Assay to monitor cytotoxicity in HEK293 cells - 16 hour (AID 1224888). Further: nearly all actives have a fitted effect of over 35% in size. The note with it: CellTox Green fluorescence; series mostly up to 76.8 µM. Summed up: as §7
The nature of test [5]: qHTS assay to identify small molecule antagonists of the TGF-beta/Smad signaling pathway - cell viability counter screen (AID 1346824). Further: nearly all actives have a fitted effect of over 50% in size. To be noted: SBE-bla HEK293T viability, CellTiter-Glo luminescence; series mostly up to 76.8 µM. Summed up:
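SBE-bla HEK 293T cells, incubated overnight, then compound plus 0.25 ng/mL TGF-beta1 (stock added) for 5 hr at 37 C. Viability was read in the same wells by CellTiter-Glo luminescence after 30 min at room temperature.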

The nature of test [6]: qHTS assay to identify small molecule agonists of the constitutive androstane receptor (CAR) signaling pathway - cell viability counter screen (AID 1224836). Further: nearly all actives have a fitted effect of over 45% in size. The note with it: HepG2-CYP2B6-hCAR viability, CellTiter-Fluor, 23 h, PK11195 added to every well; series mostly up to 92.4 µM. The text has this:
U.S. Tox21 Program National Center for Advancing Translational Sciences [NCATS] NIH Chemical Genomics Center [NCGC] U.S. Environmental Protection Agency [EPA] National Institutes of Environmental Health Sciences [NIEHS] National Toxicology Program [NTP] U.S. Food and Drug Administration [FDA] Tox21 Assay Overview: The constitutive androstane receptor (CAR) is a nuclear receptor which regulates multiple drug metabolizing enzymes (DMEs) and transporters. Activating CAR will generally increase the transcription and subsequent translation of CYP2B6 and CYP3A4. These two DMEs represent about 50% of the drug metabolizing potential in the body. […] Recently, there have also been studies performed indicating CARs role in energy metabolism and cancer therapy. Therefore, inducing CARs activity could have a potential effect on diabetes and cancer. Identifying environmental toxins and compounds which modulate CAR, through the use of the Tox21 10K compound collection, will be an important step in determining the toxicity and potential therapeutic effects these factors will have on the human body. […]
Tox21 Assay Protocol Summary: A double-stable (hCAR and CYP2B6-2.2kb) transfected cell line, derived from human hepatoma (HepG2) cells, was utilized for the duration of the quantitative high-throughput screens. […] The fluorescence intensity in the plates was then measured using a ViewLux plate reader.

Test [7] in a line: qHTS assay to identify small molecule antagonists of the constitutive androstane receptor (CAR) signaling pathway - cell viability counter screen (AID 1224837). Further: nearly all actives have a fitted effect of over 45% in size. To be noted: HepG2-CYP2B6-hCAR viability, CellTiter-Fluor, 23 h, co-treated with 50 nM CITCO; series mostly up to 92.4 µM.
Source text: as §1, §2, §3, §4, §5, §6
The constitutive androstane receptor (CAR) is a nuclear receptor which regulates multiple drug metabolizing enzymes (DMEs) and transporters. Activating CAR will generally increase the transcription and subsequent translation of CYP2B6 and CYP3A4. These two DMEs represent about 50% of the drug metabolizing potential in the body. When CAR is deactivated, the metabolizing potential in the body will decrease, subsequently increasing the toxicity in the body or lowering the therapeutic potential of a pro-drug. Recently, there have also been studies performed indicating CARs role in energy metabolism and cancer therapy. Therefore, inhibiting CARs activity could have a potential effect on diabetes and cancer. […]
A double-stable (hCAR and CYP2B6-2.2kb) transfected cell line, derived from human hepatoma (HepG2) cells, was utilized for the duration of the quantitative high-throughput screens. […] The fluorescence intensity in the plates was then measured using a ViewLux plate reader.

A short description of test [8]: qHTS assay to identify small molecule antagonists of the androgen receptor (AR) signaling pathway using the MDA cell line - cell viability counter screen (AID 743041; further: nearly all actives have a fitted effect of over 45% in size). The note with it: MDA-kb2 viability, CellTiter-Fluor, 16 h, cells co-treated with R1881 androgen agonist; series mostly up to 95 µM.
Source text: as §1, §2, §3, §4, §5, §6
Androgen receptor (AR), a nuclear hormone receptor, plays a critical role in AR-dependent prostate cancer and other androgen related diseases. Endocrine disrupting chemicals (EDCs) and their interactions with steroid hormone receptors like AR may cause disruption of normal endocrine function as well as interfere with metabolic homeostasis, reproduction, developmental and behavioral functions. To identify the compounds that inhibit AR signaling, MDA-kb2 AR-luc cell line (from ATCC, deposited by Wilson et al.) was used to screen the Tox21 10K compound library. […]
MDA-kb2 AR-luc cells were dispensed at 3,000 cells/4 uL/well of culture medium into white wall/solid-bottom 1536-well plates using a Multidrop Combi (ThermoFisher Scientific, Waltham, MA) dispenser. […] The fluorescence intensity was quantified on a ViewLux plate reader (PerkinElmer, Shelton, CT) following 30 min incubation at 37C and 0% CO2.

A short description of test [9]: qHTS assay to identify small molecule antagonists of the peroxisome proliferator-activated receptor gamma (PPARg) signaling pathway - cell viability counter screen (AID 743194). Further: nearly all actives have a fitted effect of over 55% in size. The note with it: PPARg-bla HEK293H viability, CellTiter-Glo luminescence, 17 h, co-treated with 50 nM rosiglitazone; series mostly up to 62.6 µM. An outline of the steps:
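Cytotoxicity counter screen in PPARg-bla HEK293H cells, same wells as reporter assay. Compounds plus 50 nM rosiglitazone (final) for 17 h at 37 C, then viability read by CellTiter-Glo luminescence.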

Test [10] is described as follows: qHTS assay to identify small molecule antagonists of the thyroid receptor (TR) signaling pathway (AID 743065). Further: nearly all actives have a fitted effect of over 55% in size. The note with it: GH3.TRE-Luc, T3-stimulated luciferase inhibition, 23.5 h; series mostly up to 95 µM. An outline of the steps: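 GH3.TRE-Luc rat pituitary cells (two TREs driving luciferase) were dosed with compound, then stimulated with 1 nM T3 (final) for 23.5 h at 37 C. ONE-Glo luminescence was the read-out, with CellTiter-Fluor fluorescence as the cytotoxicity counter-screen.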
Potency means the concentration at half of the fitted maximal effect.

For `CC[C@H](C)[C@H]1O[C@]2(C=C[C@@H]1C)C[C@@H]1C[C@@H](C/C=C(\C)[C@@H](O[C@H]3C[C@H](OC)[C@@H](O[C@H]4C[C@H](OC)[C@@H](O)[C@H](C)O4)[C@H](C)O3)[C@@H](C)/C=C/C=C3\CO[C@@H]4[C@H](O)C(C)=C[C@@H](C(=O)O1)[C@]34O)O2`, the Potency result in [1] was “inactive [sample A] and active: 36.1 µM [sample B]”; in [2], “inactive [sample A] and active: 10.3 µM [sample B]”. On to `Clc1ccc(COC(Cn2ccnc2)c2ccc(Cl)cc2Cl)cc1` (configuration not stated), for which the Potency result is “active: 45.7 µM [sample A] and active: 48.8 µM [sample B] and inactive [sample C]” in test [3]; “active: 48.8 µM [sample A] and inactive [sample B]” in [4]. For `N#CSCSC#N`, the Potency entry in [5] is “active: 50.1 µM [sample A] and inactive [sample B]”. As for `CC(C)CC(C)(c1ccc(O)cc1)c1ccc(O)cc1`, the Potency result in [6] is “active: 61.3 µM [sample A] and inactive [sample B]”; in test [7] it was “active: 61.3 µM [sample A] and inactive [sample B]”; in test [3], “active: 49.1 µM [sample A] and inactive [sample B]”; in test [4], “active: 39 µM [sample A] and inactive [sample B]”.

With `Cc1cc(N=Nc2ccccc2C)ccc1N`, the Potency entry in test [8] was “active: 61.1 µM [sample A] and inactive [sample B]”.

Take `CCCCN(CCCC)C(=S)[S-].CCCCN(CCCC)C(=S)[S-].[Zn+2]`: the Potency result in [1] is “inactive [sample A] and active: 61.1 µM [sample B]”. Consider `Oc1ccc(C(c2ccc(O)cc2)(C(F)(F)F)C(F)(F)F)cc1`, for which the Potency result in [3] is “active: 38.7 µM [sample A] and inactive [sample B]”. Turning to `O=c1[nH]c2ccccc2n1C1CCN(CCCC(c2ccc(F)cc2)c2ccc(F)cc2)CC1`, the Potency result in test [5] was “active: 49 µM [sample A] and inactive [sample B]”. Regarding `Clc1ccc(C(c2ccc(Cl)cc2)C(Cl)(Cl)Cl)cc1`, the Potency result in test [9] is “active: 49 µM [sample A] and inactive [sample B]”; in test [3], “active: 55.3 µM [sample A] and inactive [sample B] and inactive [sample C]”. Consider `C[C@H]1CC[C@@H]2[C@@H](C)[C@H]3[C@H](C[C@H]4[C@@H]5CC=C6CC(O[C@@H]7O[C@H](CO)[C@H](O)[C@H](O[C@@H]8O[C@H](CO)[C@@H](O)[C@H](O)[C@H]8O)[C@H]7O[C@H]7O[C@@H](C)[C@H](O)[C@@H](O)[C@H]7O)CC[C@]6(C)[C@H]5CC[C@]34C)N2C1` (some centres not stated), for which the Potency entry was “active: 24.8 µM [sample A] and inactive [sample B]” in [8]; “active: 23.7 µM [sample A] and inactive [sample B]” in test [10].
